Data taken from PMC5540273 (PLoS ONE, 2017).
For some of these results: Most of the strong results are listed elsewhere, so they are rarer here than in the full data. Only a part is listed here, and it is no random draw.

How the values were obtained:
Conditions in all cases: concentration: 1 μM,replicates: in singlicate; n = 1
[1] = tested on: NDR2
[2] = tested on: NEK10
[3] = tested on: NEK11
[4] = tested on: NEK1
[5] = tested on: NEK2
[6] = tested on: NEK3
[7] = tested on: NEK4
[8] = tested on: NEK5
[9] = tested on: NEK6
[10] = tested on: NEK7
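Also: KINOMEscan kinase panel screen.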

SMILES | %Inh [1] [%] | %Inh [2] [%] | %Inh [3] [%] | %Inh [4] [%] | %Inh [5] [%] | %Inh [6] [%] | %Inh [7] [%] | %Inh [8] [%] | %Inh [9] [%] | %Inh [10] [%]
O=C1NC(=O)C(c2ccc(Cl)cc2)=C1Nc1cccc(C(=O)O)c1 [SB-360737] | 0 | 55 | 0 | 0 | 0 | 17 | 10 | 17 | 0 | 0
Cc1ccc(C)c(Oc2nccc(-c3c(-c4ccc(F)cc4)ncn3C3CCNCC3)n2)c1.O=C(O)C(F)(F)F.O=C(O)C(F)(F)F.O=C(O)C(F)(F)F [SB-284852] | 0 | 0 | 0 | 0 | 97.4 | 28 | 0 | 0 | 7 | 0
O=C1NC(=O)C(c2ccc(Cl)cc2)=C1Nc1ccc(O)c(Cl)c1 [SB-405367] | 20 | 55 | 0 | 0 | 3 | 29 | 6 | 0 | 10 | 0
O=C1NC(=O)C(c2ccccc2Cl)=C1Nc1ccccc1 [SB-376715] | 28 | 56 | 26 | 0 | 73 | 0 | 0 | 0 | 0 | 1
O=C(O)c1ccc(-c2nc(-c3ccc(F)cc3)c(-c3ccncc3)[nH]2)cc1 [SB-202620] | 12 | 6 | 0 | 0 | 0 | 20 | 0 | 4 | 13 | 0
CS(=O)(=O)c1ccccc1-c1nc(-c2ccc(F)cc2)c(-c2ccncc2)[nH]1 [SB-213663] | 4 | 6 | 0 | 0 | 0 | 12 | 0 | 0 | 0 | 0
O=C1NC(=O)C(c2ccccc2Cl)=C1Nc1cccc(C(=O)O)c1 [SB-390526] | 17 | 6 | 5 | 0 | 0 | 7 | 0 | 2 | 0 | 0
O=C1NC(=O)C(c2ccc(Cl)cc2)=C1Nc1cccc(O)c1 [SB-333613] | 10 | 50 | 0 | 0 | 12 | 11 | 15 | 0 | 0 | 10
O=C1NC(=O)C(c2ccccc2)=C1Nc1cc(Cl)c(O)c(Cl)c1 [SB-390530] | 0 | 52 | 0 | 0 | 7 | 0 | 4 | 0 | 3 | 0
O=C1NC(=O)C(c2ccc(Cl)cc2)=C1Nc1ccccc1 [SB-317661] | 5 | 28 | 22 | 0 | 0 | 25 | 0 | 0 | 0 | 0
COc1cccc(C2=C(Nc3ccc(SC)cc3)C(=O)NC2=O)c1 [SB-331032] | 15 | 32 | 0 | 4 | 0 | 21 | 0 | 19 | 0 | 0
O=C1NC(=O)c2c1c(-c1ccccc1)cc1[nH]c3ccc(O)cc3c21 | 0 | 43 | 0 | 9 | 14 | 33 | 10 | 14 | 11 | 8
O=C1NC(=O)C(c2ccccc2)=C1Nc1ccc(Cl)c(C(=O)O)c1 [SB-390532] | 3 | 88 | 37 | 0 | 6 | 10 | 12 | 4 | 0 | 0
CSc1ccc(NC2=C(c3cccc(Cl)c3)C(=O)NC2=O)cc1 [SB-341528] | 13 | 0 | 11 | 0 | 3 | 16 | 3 | 0 | 2 | 0
Cc1cc(C)cc(Oc2nccc(-c3c(-c4ccc(F)cc4)ncn3C3CCNCC3)n2)c1.O=C(O)C(F)(F)F.O=C(O)C(F)(F)F.O=C(O)C(F)(F)F [SB-284851] | 3 | 0 | 0 | 0 | 7 | 35 | 0 | 3 | 27 | 0
COc1ccc(C2=C(Nc3cccc(Cl)c3)C(=O)NC2=O)cc1 [SB-326892] | 0 | 26 | 0 | 0 | 4 | 5 | 0 | 3 | 17 | 0
